In PMC4336329 (PLoS ONE, 2015):
The campaign covered roughly 310,000 compounds. About 14,000 (4.5%) showed an effect of 50% or more. Effects have a minus sign here. Some of the results follow.

These compounds were tested against human ether-à-go-go-related gene (hERG) potassium channel (human, UniProt Q12809) (assay: primary screen, population patch clamp on CHO cells stably expressing hERG).
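Further: peak tail current of the secondary pulse compared with the same well before compound.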

human ether-à-go-go-related gene (hERG) potassium channel, sequence (Q12809 whole entry, looked up): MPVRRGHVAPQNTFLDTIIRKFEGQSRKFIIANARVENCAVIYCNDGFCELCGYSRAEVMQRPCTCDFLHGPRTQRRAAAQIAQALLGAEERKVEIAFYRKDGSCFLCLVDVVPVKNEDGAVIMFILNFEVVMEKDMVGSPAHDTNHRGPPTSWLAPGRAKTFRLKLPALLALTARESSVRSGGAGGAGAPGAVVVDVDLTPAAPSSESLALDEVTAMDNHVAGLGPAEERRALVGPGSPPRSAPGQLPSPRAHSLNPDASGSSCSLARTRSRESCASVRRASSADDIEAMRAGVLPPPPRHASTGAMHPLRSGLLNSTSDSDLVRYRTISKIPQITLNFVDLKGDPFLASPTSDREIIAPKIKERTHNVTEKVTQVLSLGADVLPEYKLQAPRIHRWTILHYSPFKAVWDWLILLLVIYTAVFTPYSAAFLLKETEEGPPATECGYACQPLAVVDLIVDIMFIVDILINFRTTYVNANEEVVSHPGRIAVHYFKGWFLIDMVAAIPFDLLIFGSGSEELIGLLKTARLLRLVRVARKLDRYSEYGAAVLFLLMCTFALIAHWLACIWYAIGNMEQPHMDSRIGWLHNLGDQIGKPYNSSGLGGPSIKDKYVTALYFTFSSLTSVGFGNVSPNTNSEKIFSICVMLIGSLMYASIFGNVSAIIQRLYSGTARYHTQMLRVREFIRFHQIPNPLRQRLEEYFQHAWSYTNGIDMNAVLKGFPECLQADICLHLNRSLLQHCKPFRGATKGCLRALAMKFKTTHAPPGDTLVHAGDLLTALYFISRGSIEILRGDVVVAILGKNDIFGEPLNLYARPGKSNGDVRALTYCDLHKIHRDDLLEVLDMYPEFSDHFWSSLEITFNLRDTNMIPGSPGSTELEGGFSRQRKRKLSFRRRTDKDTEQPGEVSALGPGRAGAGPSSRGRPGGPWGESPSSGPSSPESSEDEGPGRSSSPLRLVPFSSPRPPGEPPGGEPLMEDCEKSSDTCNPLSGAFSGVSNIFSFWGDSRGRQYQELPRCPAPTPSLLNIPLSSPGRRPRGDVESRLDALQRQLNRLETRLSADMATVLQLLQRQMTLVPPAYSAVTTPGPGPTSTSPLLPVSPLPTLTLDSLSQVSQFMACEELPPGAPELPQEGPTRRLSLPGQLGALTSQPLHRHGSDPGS

Point of comparison: CCOC(=O)Cc1csc(NC(=O)c2sc3nc4c(C)cc(C)cc4cc3c2N)n1, “hERG current change (%, negative = inhibition) at 10uM” value -0.163%. Against it:
- COC(=O)c1sc(-c2ccc(Cl)cc2)cc1N — lower, -37.1%
- C=CCn1c(CCNC(=O)c2ccccc2F)nnc1SCC(=O)Nc1nc2ccccc2s1 — lower, -24.3%
- O=C(c1ccc(-c2ccccc2)c(F)c1)C1CCCN(CCO)C1 (centres unmarked) — lower, -44.8%
- C[C@H](NC(=O)c1ccccc1Cl)C(=O)OCc1cn2cc(Cl)ccc2n1 — lower, -7.08%
- CC(NS(=O)(=O)c1ccccc1Cl)C1CC2CCC1C2 (centres unmarked) — higher, 6.73%
- COc1ccc(C(=O)n2nc(C)cc2C)cc1Br — higher, -0.154%
- O=C(c1cc2c(cc1Br)OCCCO2)N1CCCCC1 — higher, 11%
- O=C(O)CCCCCn1c(SCc2cc(=O)n3cc(Cl)ccc3n2)nc2ccsc2c1=O — lower, -11.7%
- Cc1ccc(S(=O)(=O)NC(CC(C)C)C(=O)N2CC(C)OC(C)C2)cc1 (centres unmarked) — lower, -24.4%
- O=C(CC(c1ccccc1)C1CCCCC1=O)c1ccco1 (centres unmarked) — lower, -1.73%
- Cc1ccc(NC(=O)CCS(=O)(=O)c2ccc(Br)s2)cc1 — lower, -15.4%
- CCOc1ccc(N2C(=O)CC(Sc3ncccn3)C2=O)cc1 (centres unmarked) — higher, 8.27%
- Cc1cc(NC(=O)COc2ccccc2C)no1 — higher, 9.34%
- O=C1CC(c2ccccc2)CC(O)=C1C=Nc1ccccc1 (centres unmarked) — higher, 5.66%
- Cc1ccc(S(C)(=O)=O)cc1C(=O)Nc1ccc(S(=O)(=O)Nc2nccs2)cc1 — higher, 3.07%
- CCn1cc(C(=O)N[C@@H](C)C(=O)NCCCO)c(=O)c2cc3c(cc21)OCO3 — higher, 23.8%
- CC1CCCCN1C(=O)C1CCCCN1S(=O)(=O)c1cccc([N+](=O)[O-])c1 (centres unmarked) — lower, -7.99%
- CC1CCC(NC(=O)CCS(=O)(=O)c2ccc3c(c2)CCN3C(=O)C2CC2)CC1 (centres unmarked) — higher, 13%
- COCCN(C(=O)COC(=O)CCc1c[nH]c2ccccc12)c1c(N)n(Cc2ccccc2)c(=O)[nH]c1=O — lower, -17.9%
- O=C(Cc1ccc(Cl)cc1)Nc1ccccc1C(=O)Nc1ccc(C(=O)O)cc1 — higher, 17.9%
- C=CCOc1ccc2ccccc2c1CNn1c(C)n[nH]c1=S — higher, 14.4%
- NCCCCCc1cn(CC(=O)NCCCCCCCCCCC(=O)N2CCNCC2)nn1 — lower, -30.6%
- CC(=O)N1CCN(C(=O)c2cc3ccccc3o2)CC1 — higher, 20.1%
- Cc1ccc(S(=O)(=O)CCC(=O)NCc2ccco2)cc1 — lower, -4.83%
- O=C(Nc1ccc(Cl)cc1)N1N=CCC1c1ccccc1 (centres unmarked) — lower, -1.59%
- Cc1ccc(/C=N/NC(=O)c2ccc(-n3cccc3)cc2)o1 — higher, 3.69%
- O=C(NCc1cnn(-c2ccccc2)c1)C1CCC(=O)N(C2CC2)C1 (centres unmarked) — higher, 15.6%
- Cc1cnc(C(=O)OCC(=O)NCc2ccccc2)cn1 — higher, 23.6%
- COc1cc(C=O)c(Br)cc1OCC(=O)NCc1ccccc1 — higher, 10.5%
- CCC1CC(C(=O)Nc2ccccc2)C(=O)O1 (centres unmarked) — higher, 16.8%
- O=c1[nH]cnc2c1oc1ccccc12 — higher, 10%
- CC(C)C(OC(=O)c1nsc(Cl)c1Cl)C(=O)NCc1ccccc1 (centres unmarked) — lower, -1.02%
- Cl.Fc1ccccc1CNC1CN2CCC1CC2 (centres unmarked) — higher, 22%
- C=CCn1c(N)cc(=O)nc1SCC(=O)N(c1ccccc1)c1ccccc1 — higher, 15.3%
- COc1ccc2c3c([nH]c2c1)C1CC2C(CC(O)C(OC)C2CO)CN1CC3 (centres unmarked) — lower, -48.7%
- COc1ccccc1C1C2=C(COC2=O)Nc2cc3c(cc21)OCO3 (centres unmarked) — higher, 1.55%
- OC(c1ccccc1)c1ccncc1 (centres unmarked) — higher, 6.25%
- COc1cc(C2CC(=O)N3CN(Cc4ccccc4)CSC3=C2C#N)ccc1OCc1ccccc1 (centres unmarked) — higher, 12.7%
- CCCCC(=O)OCc1nc2ccccc2s1 — higher, 10.1%
- CCC(=O)NCC(c1cccs1)S(=O)(=O)c1ccc(C)cc1 (centres unmarked) — higher, 15.3%
- COc1ccccc1OCCC(=O)OCC(=O)c1c(N)n(C)c(=O)n(C)c1=O — lower, -10.3%
- COc1ccc(/C=N/Nc2nc3ccccc3c(=O)[nH]2)cc1 — lower, -18.1%
- COC(=O)c1c(NC(=O)CN2CCCc3ccccc32)sc(C)c1C — higher, 10.5%
- Cc1ccc(C(=O)OCC(=O)NCc2ccco2)cc1 — lower, -8.9%
- COc1ccc(C(C(=O)NC2CCCCC2)N(C(=O)c2snc(C(N)=O)c2N)c2ccccc2OC)cc1 (centres unmarked) — higher, 11.4%
- COc1ccc(/C=C/C(=O)Oc2ccc(C)cc2)cc1 — lower, -14.4%
- Cc1ccccc1NC(=O)c1ccno1 — higher, 10.4%
- COCCNC(=O)c1cc(-c2ccc(OC)c(OC)c2)on1 — lower, -1.95%
- COc1ccccc1NC(c1cccnc1)c1ccc2cccnc2c1O (centres unmarked) — higher, 5.53%
- CCC(=O)NC(=S)Nc1ccc(NC(=O)COc2ccc(Cl)cc2Cl)cc1 — higher, 10.7%
- CCCc1nnc(SCC(=O)Nc2cccc(C(F)(F)F)c2)o1 — higher, -0.0577%
- CCCC(CCC)C(=O)Oc1cc(C)[nH]c(=O)c1[N+](=O)[O-] — higher, 20.2%
- O=C(CSc1nccc2ccccc12)N1CCN(Cc2ccc3c(c2)OCO3)CC1 — lower, -40.5%
- O=C(CSc1nnc(NC(=O)C2CC2)s1)NCc1cccs1 — higher, 11%
- CC(NC(=O)Cn1cnc([N+](=O)[O-])n1)c1ccccc1 (centres unmarked) — higher, 12.2%
- CN(C)S(=O)(=O)c1ccc(N2CCCC2)c(C(=O)Nc2nc3c(ccc4ccccc43)s2)c1 — higher, 14.9%
- COc1ccc(-n2cc(-c3ccccc3)c3c(NN4CCOCC4)ncnc32)cc1 — lower, -40.6%
- Cn1c(=O)c2[nH]c(-c3ccccc3O)nc2n(C)c1=O — higher, 23%
